Data published in paper PMC5892938.
This is one part of the list. At the low end of the ranking the order means little.

Biological target: GST-SBP-SLBP (stem-loop binding protein) (UniProt Q14493)
Assay: targeted RNA Bind-n-Seq;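 also: DESeq read counts versus GST-SBP nonspecific binding control pulldown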
Settings: RBNS binding buffer: 25 mM Tris pH 7.5, 150 mM KCl, 3 mM MgCl2, 0.1% Tween, 0.5 mg/mL BSA, 1 mM DTT; 27 nM protein, 750 pM RNA pool; temperature not stated; high values mean tight binding

Sequence | binding signal (log2 fold change)
GGUCACGUCUCAAUCAACUCUUUCCCCAGGGAAAGCCCUGGCAUUCUCAACAGCUCGCAGUCAAG | -0.0176
GGUCACGUCUCAAUCAACUCUCCAGAGGGGGGGAAAACCCCUUUACCCUCAACAUCAACAGCUCGCAGUCAAG | 0.304
GGUCACGUCUCAAUCAACUCUUCCUCCAGGGAAAGCCCUGGUAAUGUCAACAGCUCGCAGUCAAG | -0.211
GGUCACGUCUCAAUCAACUCAACUUCAGGAGUUUACUCCUGCUUUCUCAACAGCUCGCAGUCAAG | 0.0425
GGUCACGUCUCAAUCAACUCAAACGAGGGGGGGAAAACCCCUUUACCCUCAACCUCAACAGCUCGCAGUCAAG | -0.0512
GGUCACGUCUCAAUCAACUCUUUCCCCAGGGAAAUCCCUGGUAAUCUCAACAGCUCGCAGUCAAG | 0.116
GGUCACGUCUCAAUCAACUCAAUCUCAGGAGUUUUCUCCUGUAUGUUCAACAGCUCGCAGUCAAG | 0.199
GGUCACGUCUCAAUCAACUCACACGAGGGGGGGAAAACCCCUUUACCCUCUCAAUCAACAGCUCGCAGUCAAG | 0.0404
GGUCACGUCUCAAUCAACUCUACUUCCAGGGAAACCCCUGGCAAUCUCAACAGCUCGCAGUCAAG | -0.177
GGUCACGUCUCAAUCAACUCAUCUUCAGGAGUUUCCUCCUGCUAAUUCAACAGCUCGCAGUCAAG | 0.0162
GGUCACGUCUCAAUCAACUCUAUCGAGGGGGGGAAAACCCCUUUACCCUCAACAUCAACAGCUCGCAGUCAAG | -0.0975
GGUCACGUCUCAAUCAACUCAAUUUCCAGGGAAAACCCUGGUAUUUUCAACAGCUCGCAGUCAAG | -0.243
GGUCACGUCUCAAUCAACUCAAACGAGGGGGGGAAAACCCCUUUACCCUCAAGAUCAACAGCUCGCAGUCAAG | -0.0454
GGUCACGUCUCAAUCAACUCUUCAGAGGGGGGGAAAACCCCUUUACCCUCCGUUUCAACAGCUCGCAGUCAAG | 0.44
GGUCACGUCUCAAUCAACUCUACUUCAGGAGUUUCCUCCUGUUAUUUCAACAGCUCGCAGUCAAG | 0.165
GGUCACGUCUCAAUCAACUCAGUCUCAGGAGUUUGCUCCUGCUAUCUCAACAGCUCGCAGUCAAG | 0.114
GGUCACGUCUCAAUCAACUCUUAAGAGGGGGGGAAAACCCCUUUGCCCUCCACAUCAACAGCUCGCAGUCAAG | 0.0163
GGUCACGUCUCAAUCAACUCUUUCUCCAGGGAAAUCCCUGGUUAAUUCAACAGCUCGCAGUCAAG | -0.0687
GGUCACGUCUCAAUCAACUCCACAGAGGGGGGGAAAACCCCUUUACCCUCAAAAUCAACAGCUCGCAGUCAAG | -0.154
GGUCACGUCUCAAUCAACUCAUUUUCCAGGGAAAGCCCUGGUAUUUUCAACAGCUCGCAGUCAAG | 0.0418
GGUCACGUCUCAAUCAACUCUCACGAGGGGGGGAAAACCCCUUUGCCCUCAAUUUCAACAGCUCGCAGUCAAG | 0.305
GGUCACGUCUCAAUCAACUCCCAAGAGGGGGGGAAAACCCCUUUGCCCUCAACCUCAACAGCUCGCAGUCAAG | -0.443
GGUCACGUCUCAAUCAACUCCCUAGAGGGGGGGAAAACCCCUUUGCCCUCCAUAUCAACAGCUCGCAGUCAAG | -0.443
GGUCACGUCUCAAUCAACUCAUUUCCAGGAGUUUCCUCCUGCUUUUUCAACAGCUCGCAGUCAAG | 0.0415

Sequence | binding signal (log2 fold change)
GGUCACGUCUCAAUCAACUCAAUCUCAGGAGUUUUCUCCUGCAAAUUCAACAGCUCGCAGUCAAG | 0.0731
GGUCACGUCUCAAUCAACUCAUCGCCCAGGGAAAUCCCUGGUAUUUUCAACAGCUCGCAGUCAAG | 0.0577
GGUCACGUCUCAAUCAACUCAAUCUCAGGAGUUUACUCCUGCAUAGUCAACAGCUCGCAGUCAAG | 0.214
GGUCACGUCUCAAUCAACUCCUUAGAGGGGGGGAAAACCCCUUUGCCCUCCGUAUCAACAGCUCGCAGUCAAG | 0.307
GGUCACGUCUCAAUCAACUCAGUCUCCAGGGAAAUCCCUGGCAAUUUCAACAGCUCGCAGUCAAG | 0.0962
GGUCACGUCUCAAUCAACUCUUUUCCCAGGGAAAGCCCUGGCUUUUUCAACAGCUCGCAGUCAAG | 0.0822
GGUCACGUCUCAAUCAACUCCCUAGAGGGGGGGAAAACCCCUUUACCCUCAAAAUCAACAGCUCGCAGUCAAG | -0.123
GGUCACGUCUCAAUCAACUCUACUCCCAGGGAAAGCCCUGGUAAACUCAACAGCUCGCAGUCAAG | -0.0284
GGUCACGUCUCAAUCAACUCAAUCGCAGGAGUUUACUCCUGGUUUUUCAACAGCUCGCAGUCAAG | 0.0811
GGUCACGUCUCAAUCAACUCUCUAGAGGGGGGGAAAACCCCUUUACCCUCCACUUCAACAGCUCGCAGUCAAG | 0.00476
GGUCACGUCUCAAUCAACUCCAUCGAGGGGGGGAAAACCCCUUUACCCUCAUACUCAACAGCUCGCAGUCAAG | -0.0704
GGUCACGUCUCAAUCAACUCUAGUCCCAGGGAAAUCCCUGGUUUUUUCAACAGCUCGCAGUCAAG | -0.201
GGUCACGUCUCAAUCAACUCAUCUUCAGGAGUUUCCUCCUGCUUACUCAACAGCUCGCAGUCAAG | -0.149
GGUCACGUCUCAAUCAACUCAAUUUCCAGGGAAAACCCUGGCAUAGUCAACAGCUCGCAGUCAAG | 0.0353
GGUCACGUCUCAAUCAACUCUUUUCCCAGGGAAAACCCUGGUAUUUUCAACAGCUCGCAGUCAAG | 0.0111
GGUCACGUCUCAAUCAACUCAUCCUCCAGGGAAAUCCCUGGCUUAUUCAACAGCUCGCAGUCAAG | -0.0358
GGUCACGUCUCAAUCAACUCUAUCCCCAGGGAAACCCCUGGUUAAUUCAACAGCUCGCAGUCAAG | 0.0663
GGUCACGUCUCAAUCAACUCUUCUUCAGGAGUUUACUCCUGUUAUUUCAACAGCUCGCAGUCAAG | 0.0783
GGUCACGUCUCAAUCAACUCUAUUCCCAGGGAAAGCCCUGGUAUUCUCAACAGCUCGCAGUCAAG | 0.307
GGUCACGUCUCAAUCAACUCAUUCCCCAGGGAAAACCCUGGUUUUUUCAACAGCUCGCAGUCAAG | -0.0655
GGUCACGUCUCAAUCAACUCUUCUCCCAGGGAAAGCCCUGGCAAUUUCAACAGCUCGCAGUCAAG | 0.428
GGUCACGUCUCAAUCAACUCUUUCUCAGGAGUUUGCUCCUGCAUAUUCAACAGCUCGCAGUCAAG | 0.0916
GGUCACGUCUCAAUCAACUCAGUUUCCAGGGAAACCCCUGGCUUUUUCAACAGCUCGCAGUCAAG | 0.0285
